Measured values published in patent US20010029293A1 (ICOS, published 2001).

How the values were obtained:
[1] = target: T1, αd/CD18 on transfected CHO cells (human, UniProt Q13349 18-1161; P05107); assay: flow cytometry, soluble chimera on transfected CHO cells
T1 construct: whole, on cells; also called alpha d/CD18

[2] = target: T1, αd/CD18 on transfected CHO cells; assay: adhesion of transfected CHO cells to coated wells

binding result [1]	binding result [2]	Binder
no binding (tested: 5 µg/ml)		ICAM-1/IgG chimera (Fc fusion, UniProt P05362 28-480, looked up) QTSVSPSKVILPRGGSVLVTCSTSCDQPKLLGIETPLPKKELLLPGNNRKVYELSNVQEDSQPMCYSNCPDGQSTAKTFLTVYWTPERVELAPLPSWQPVGKNLTLRCQVEGGAPRANLTVVLLRGEKELKREPAVGEPAEVTTTVLVRRDHHGANFSCRTELDLRPQGLELFENTSAPYQLQTFVLPATPPQLVSPRVLEVDTQGTVVCSLDGLFPVSEAQVHLALGDQRLNPTVTYGNDSFSAKASVSVTAEDEGTQRLTCAVILGNQSQETLQTVTIYSFPAPNVILTKPEVSEGTEVTVKCEAHPRAKVTLNGVPAQPLGPRAQLLLKATPEDNGRSFSCSATLEVAGQLIHKNQTRELRVLYGPRLDERDCPGNWTWPENSQQTPMCQAWGNPLPELKCLKDGTFPLPIGESVTVTRDLEGTYLCRARSTQGEVTRKVTVNVLSPRYE[human IgG1 Fc not spelt out]
	no binding	VCAM-1/IgG chimera (Fc fusion, UniProt P19320 25-698, looked up) FKIETTPESRYLAQIGDSVSLTCSTTGCESPFFSWRTQIDSPLNGKVTNEGTTSTLTMNPVSFGNEHSYLCTATCESRKLEKGIQVEIYSFPKDPEIHLSGPLEAGKPITVKCSVADVYPFDRLEIDLLKGDHLMKSQEFLEDADRKSLETKSLEVTFTPVIEDIGKVLVCRAKLHIDEMDSVPTVRQAVKELQVYISPKNTVISVNPSTKLQEGGSVTMTCSSEGLPAPEIFWSKKLDNGNLQHLSGNATLTLIAMRMEDSGIYVCEGVNLIGKNRKEVELIVQEKPFTVEISPGPRIAAQIGDSVMLTCSVMGCESPSFSWRTQIDSPLSGKVRSEGTNSTLTLSPVSFENEHSYLCTVTCGHKKLEKGIQVELYSFPRDPEIEMSGGLVNGSSVTVSCKVPSVYPLDRLEIELLKGETILENIEFLEDTDMKSLENKSLEMTFIPTIEDTGKALVCQAKLHIDDMEFEPKQRQSTQTLYVNVAPRDTTVLVSPSSILEEGSSVNMTCLSQGFPAPKILWSRQLPNGELQPLSENATLTLISTKMEDSGVYLCEGINQAGRSRKEVELIIQVTPKDIKLTAFPSESVKEGDTVIISCTCGNVPETWIILKKKAETGDTVLKSIDGAYTIRKAQLKDAGVYECESKNKVGSQLRSLTLDVQGRENNKDYFSPE[human IgG1 Fc not spelt out]
